# Laboratory results as given in a collection of fitness landscapes (doi:10.1126/science.1257360).
# Some of the results follow.
# B1: PhoQ; a variant is named by its letters at X, in order, P23837 (parent)
# chain: MKKLLRLFFPLSLRVRFLLATAAVVLVLSLAYGMVALIGYSVSFDKTTFRLLRGESNLFYTLAKWENNKLHVELPENIDKQSPTMTLIYDENGQLLWAQRDVPWLMKMIQPDWLKSNGFHEIEADVNDTSLLLSGDHSIQQQLQEVREDDDDAEMTHSVAVNVYPATSRMPKLTIVVVDTIPVELKSSYMVWSWFIYVLSANLLLVIPLLWVAAWWSLRPIEALAKEVRELEEHNRELLNPATTRELTSLVRNLNRLLKSERERYDKYRTTLTDLTHSLKTPLXXLQXXLRSLRSEKMSVSDAEPVMLEQISRISQQIGYYLHRASMRGGTLLSRELHPVAPLLDNLTSALNKVYQRKGVNISLDISPEISFVGEQNDFVEVMGNVLDNACKYCLEFVEISARQTDEHLYIVVEDDGPGIPLSKREVIFDRGQRVDTLRPGQGVGLAVAREITEQYEGKIVAGESMLGGARMEVIFGRQHSAPKDE
# Variants of: B1
# Experiment: enrichment ratio after two sorts for PhoP signalling (ratio (wild type AVST 3.29)); higher = more functional
# Conditions: with PhoP (E. coli)
row,Variant,enrichment ratio
1,WQSI,≤ 0.25
2,FKGR,≤ 0.25
3,VTEG,≤ 0.25
4,AEAI,14.2
5,NPKK,≤ 0.25
6,NRLI,≤ 0.25
7,SAMC,18.1
8,DIQQ,≤ 0.25
9,NGMI,0.49
10,SSHQ,≤ 0.25
11,YQYT,≤ 0.25
12,DKSG,≤ 0.25
13,WQTQ,≤ 0.25
14,TYNF,≤ 0.25
15,DEGY,≤ 0.25
16,TDVN,1.05
17,MQVA,≤ 0.25
18,ATQR,≤ 0.25
19,WLTA,≤ 0.25
20,WGKL,≤ 0.25
21,QYQE,≤ 0.25
22,IISL,≤ 0.25
23,TWEP,≤ 0.25
24,VNTH,≤ 0.25
25,GKAS,≤ 0.25
26,SECC,38

row,Variant,enrichment ratio
1,IFLT,≤ 0.25
2,LLHA,≤ 0.25
3,FTCT,≤ 0.25
4,MGPL,≤ 0.25
5,PVWF,≤ 0.25
6,PPPR,≤ 0.25
7,RDYW,≤ 0.25
8,QFFI,≤ 0.25
9,SMRK,≤ 0.25
10,DHPK,≤ 0.25
11,SEVC,9.44
12,HLRL,≤ 0.25
13,LDHI,≤ 0.25
14,YYKI,≤ 0.25
15,HKYS,≤ 0.25
16,AVSC,12.2
17,AEAV,15.8
18,GSAD,≤ 0.25
19,TPHA,≤ 0.25
20,GEVH,3.28
21,GMCN,13.6
22,GSII,5.86
23,WSGF,≤ 0.25
24,IQPH,≤ 0.25
25,AAQL,≤ 0.25
26,WMTR,≤ 0.25

row,Variant,enrichment ratio
1,SNNN,16.8
2,MKCK,≤ 0.25
3,DYIQ,≤ 0.25
4,DVIV,≤ 0.25
5,RLHN,≤ 0.25
6,YYKG,≤ 0.25
7,HTRW,≤ 0.25
8,RSVH,≤ 0.25
9,MVFR,≤ 0.25
10,SCCC,5.65
11,DNPD,≤ 0.25
12,FVTS,0.605
13,DRYN,≤ 0.25
14,RSRD,≤ 0.25
15,WALG,≤ 0.25
16,DWLH,≤ 0.25
17,IGAM,≤ 0.25
18,LQSW,≤ 0.25
19,GMEV,≤ 0.25
20,FYGQ,0.428
21,GWWE,≤ 0.25
22,EDWM,≤ 0.25
23,WMFH,≤ 0.25
24,ANVT,15
25,MQKG,≤ 0.25
